The labels stand for the following.
B1: GPR68, Q15743 (parent)
chain: MGNITADNSSMSCTIDHTIHQTLAPVVYVTVLVVGFPANCLSLYFGYLQIKARNELGVYLCNLTVADLFYICSLPFWLQYVLQHDNWSHGDLSCQVCGILLYENIYISVGFLCCISVDRYLAVAHPFRFHQFRTLKAAVGVSVVIWAKELLTSIYFLMHEEVIEDENQHRVCFEHYPIQAWQRAINYYRFLVGFLFPICLLLASYQGILRAVRRSHGTQKSRKDQIQRLVLSTVVIFLACFLPYHVLLLVRSVWEASCDFAKGVFNAYHFSLLLTSFNCVADPVLYCFVSETTHRDLARLRGACLAFLTCSRTGRAREAYPLGAPEASGKSGAQGEEPELLTKLHPAFQTPNSPGSGGFPTGRLA

In series [1] the parent is B1. Nature of the series: cAMP reporter score (Enrich2 score, wild type = 0); higher = more signal; HEK293T, FACS bins.
Series [2] covers variants of B1. Nature of the series: surface expression score (Enrich2 score, wild type = 0); higher = more signal; HEK293T, FACS bins.

The least precise scores are not listed. Not listed are two conditions whose scores span a narrow range. In variant names, del marks residues removed and ins residues inserted between the two positions. For some assays here: The data file names ogerin without a concentration.

In the case of R183_A184insGS, the cAMP reporter score is 0.222 in series [1] (pH 5.5); 0.971 in series [1] (pH 6); -0.473 in series [1] (pH 6, modulator: ogerin); -0.498 in series [1] (pH 6.5, modulator: ogerin). Moreover, the surface expression score in series [2] is -0.341.
Take W181_Q182insG: the cAMP reporter score in series [1] (pH 5.5) is 0.219; in series [1] (pH 6) it was -0.183; in series [1] (pH 6, modulator: ogerin), -1.27; in series [1] (pH 6.5, modulator: ogerin), -1.06. In series [2], the surface expression score is -2.
For V192D, in that order: 0.227, 0.745, -0.297, -0.338 and -0.694.
For V192L, in that order: 1.08, 0.957, 0.341, 0.448 and -0.209.
Taken in the same sequence, the figures for V192T were 0.294, 0.312, 0.586, 0.293 and -0.145.
As for V192G, the cAMP reporter score in series [1] (pH 5.5) stood at 0.806; in series [1] (pH 6) it was 3.16; in series [1] (pH 6, modulator: ogerin), 1.47; in series [1] (pH 6.5, modulator: ogerin) it was 0.61. Moreover, the surface expression score in series [2] is -0.254.
As for V192K, the cAMP reporter score in series [1] (pH 5.5) was -1.25; in series [1] (pH 6) it was -0.746; in series [1] (pH 6, modulator: ogerin) it was -1.4; in series [1] (pH 6.5, modulator: ogerin), -1.62. In addition, in series [2], the surface expression score is -2.44.
Take V192E: the cAMP reporter score is -1.23 in series [1] (pH 5.5); -0.636 in series [1] (pH 6); -0.841 in series [1] (pH 6, modulator: ogerin); -1.3 in series [1] (pH 6.5, modulator: ogerin). In series [2], the surface expression score came out at 1.38.
Taken in the same sequence, the figures for V192S were 0.063, -0.397, -0.193, -0.763 and -0.071.
Taken in the same sequence, the figures for V192I were 0.146, 0.272, 0.98, 1.04 and 0.382.
In the case of V192A, the cAMP reporter score in series [1] (pH 5.5) was -0.597; in series [1] (pH 6) it was 0.053; in series [1] (pH 6, modulator: ogerin), -0.328; in series [1] (pH 6.5, modulator: ogerin), -0.333. The surface expression score in series [2] was -0.066.
For V192F, the cAMP reporter score in series [1] (pH 5.5) was 1.22; in series [1] (pH 6) it was 1.4; in series [1] (pH 6, modulator: ogerin), 0.885; in series [1] (pH 6.5, modulator: ogerin), 0.792. In addition, in series [2], the surface expression score is -0.175.
On to V192C, for which the cAMP reporter score in series [1] (pH 5.5) was -0.519; in series [1] (pH 6), 0.365; in series [1] (pH 6, modulator: ogerin), -0.206; in series [1] (pH 6.5, modulator: ogerin), -1.13. In series [2], the surface expression score is -0.73.
With V192Y, the cAMP reporter score was -0.832 in series [1] (pH 5.5); -1.38 in series [1] (pH 6); -1.52 in series [1] (pH 6, modulator: ogerin). The surface expression score in series [2] is -2.28.
For the variant V192Q, the cAMP reporter score in series [1] (pH 5.5) was 1.59; in series [1] (pH 6, modulator: ogerin), 0.239; in series [1] (pH 6.5, modulator: ogerin) it was -0.51. Besides, the surface expression score in series [2] was -1.84.
For V192H, the cAMP reporter score in series [1] (pH 5.5) is -0.187; in series [1] (pH 6), -0.922; in series [1] (pH 6, modulator: ogerin) it was -1.11; in series [1] (pH 6.5, modulator: ogerin), -0.546. Also, the surface expression score in series [2] was -1.92.
On to V192M, for which the cAMP reporter score is -0.391 in series [1] (pH 5.5); -0.354 in series [1] (pH 6); -0.268 in series [1] (pH 6, modulator: ogerin); -0.765 in series [1] (pH 6.5, modulator: ogerin). In addition, the surface expression score in series [2] is -0.386.
For V192R, in that order: -1.4, -0.851, -0.669, 0.024 and -2.03.
V192W: the cAMP reporter score in series [1] (pH 5.5) was -0.295; in series [1] (pH 6), -1.46; in series [1] (pH 6, modulator: ogerin) it was -1.19; in series [1] (pH 6.5, modulator: ogerin), -0.045. The surface expression score in series [2] is -0.983.
For the variant V192P, the cAMP reporter score in series [1] (pH 5.5) was -2.59; in series [1] (pH 6, modulator: ogerin), -0.713; in series [1] (pH 6.5, modulator: ogerin) it was -0.438.
Regarding G193L, the cAMP reporter score in series [1] (pH 5.5) is -0.619; in series [1] (pH 6.5, modulator: ogerin) it was -0.585.
On to G193A, for which the cAMP reporter score in series [1] (pH 5.5) was -0.999; in series [1] (pH 6) it was -1.08; in series [1] (pH 6, modulator: ogerin), -1.1; in series [1] (pH 6.5, modulator: ogerin) it was -1.73. The surface expression score in series [2] is -2.68.
For G193Q, in that order: 0.328, -0.757, -1.44, -1.37 and -2.12.
Regarding G193C, the cAMP reporter score in series [1] (pH 5.5) is -0.37; in series [1] (pH 6), -0.898; in series [1] (pH 6, modulator: ogerin), -1.78; in series [1] (pH 6.5, modulator: ogerin), -0.79. Further, in series [2], the surface expression score was -0.989.
As to G193R, the cAMP reporter score in series [1] (pH 5.5) is -1.22; in series [1] (pH 6), -1.9; in series [1] (pH 6, modulator: ogerin), -1.67; in series [1] (pH 6.5, modulator: ogerin), -1.31. Further, the surface expression score in series [2] was -2.13.
G193H: the cAMP reporter score in series [1] (pH 5.5) is -0.322; in series [1] (pH 6) it was -0.832; in series [1] (pH 6, modulator: ogerin), -1.65; in series [1] (pH 6.5, modulator: ogerin), -1.79. Moreover, the surface expression score in series [2] was -3.54.
In the case of G193P, the cAMP reporter score in series [1] (pH 5.5) is -1.76; in series [1] (pH 6, modulator: ogerin), -2.04; in series [1] (pH 6.5, modulator: ogerin) it was -1.35. For the same variant, in series [2], the surface expression score is -2.33.
With G193T, the cAMP reporter score in series [1] (pH 5.5) was -1.18; in series [1] (pH 6), -0.958; in series [1] (pH 6, modulator: ogerin), -1.77; in series [1] (pH 6.5, modulator: ogerin) it was -1.22. In series [2], the surface expression score is -2.61.
As to G193N, the cAMP reporter score is -0.699 in series [1] (pH 5.5); -0.973 in series [1] (pH 6, modulator: ogerin); 0.165 in series [1] (pH 6.5, modulator: ogerin). Moreover, the surface expression score in series [2] was -2.07.
Turning to G193I, the cAMP reporter score is -1.73 in series [1] (pH 5.5); -1.09 in series [1] (pH 6); -1.72 in series [1] (pH 6, modulator: ogerin); -0.776 in series [1] (pH 6.5, modulator: ogerin). The surface expression score in series [2] was -1.76.
Taken in the same sequence, the figures for G193S were -0.13, 0.571, 0.388, 0.083 and -0.644.

(Values after the GPR68 mutational scans of Howard et al. (2025).)
